PMC4336329 (PLoS ONE, 2015)
In all, about 310,000 compounds went through this assay and about 14,000 (4.5%) showed an effect of 50% or more. The effect is printed as a negative number. Some of the results follow.

Biological target: human ether-à-go-go-related gene (hERG) potassium channel (human, UniProt Q12809)
Experiment: primary screen, population patch clamp on CHO cells stably expressing hERG
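Further: peak tail current of the secondary pulse compared with the same well before compound.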

Sequence of human ether-à-go-go-related gene (hERG) potassium channel (Q12809 whole entry, looked up): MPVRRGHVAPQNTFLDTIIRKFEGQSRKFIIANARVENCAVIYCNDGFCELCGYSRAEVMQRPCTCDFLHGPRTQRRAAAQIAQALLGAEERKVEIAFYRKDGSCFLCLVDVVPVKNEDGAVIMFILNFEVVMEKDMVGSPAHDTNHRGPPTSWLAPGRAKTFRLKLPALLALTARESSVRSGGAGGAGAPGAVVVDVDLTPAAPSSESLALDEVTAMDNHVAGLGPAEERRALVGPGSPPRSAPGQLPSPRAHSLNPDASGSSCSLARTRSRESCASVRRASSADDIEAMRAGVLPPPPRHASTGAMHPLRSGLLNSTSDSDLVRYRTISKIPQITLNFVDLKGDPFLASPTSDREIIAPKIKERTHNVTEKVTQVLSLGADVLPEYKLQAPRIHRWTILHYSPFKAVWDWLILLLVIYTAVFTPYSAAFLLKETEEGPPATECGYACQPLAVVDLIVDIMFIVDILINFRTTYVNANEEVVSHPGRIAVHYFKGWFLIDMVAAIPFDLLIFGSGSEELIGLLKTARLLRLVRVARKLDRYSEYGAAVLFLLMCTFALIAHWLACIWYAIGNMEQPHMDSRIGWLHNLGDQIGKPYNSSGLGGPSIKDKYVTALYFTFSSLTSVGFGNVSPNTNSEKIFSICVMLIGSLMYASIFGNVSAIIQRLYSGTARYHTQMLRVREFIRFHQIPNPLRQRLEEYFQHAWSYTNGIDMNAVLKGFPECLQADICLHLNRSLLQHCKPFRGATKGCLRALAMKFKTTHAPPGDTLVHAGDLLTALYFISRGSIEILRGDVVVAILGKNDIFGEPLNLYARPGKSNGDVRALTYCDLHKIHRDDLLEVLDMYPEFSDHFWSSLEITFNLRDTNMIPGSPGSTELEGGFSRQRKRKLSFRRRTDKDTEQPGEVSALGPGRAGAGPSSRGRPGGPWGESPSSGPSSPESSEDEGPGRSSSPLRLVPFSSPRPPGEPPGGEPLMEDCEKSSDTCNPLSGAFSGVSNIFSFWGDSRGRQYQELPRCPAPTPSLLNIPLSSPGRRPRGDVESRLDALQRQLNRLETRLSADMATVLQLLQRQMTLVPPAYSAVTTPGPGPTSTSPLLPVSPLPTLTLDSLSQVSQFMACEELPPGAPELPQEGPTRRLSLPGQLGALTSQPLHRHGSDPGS

Compound	hERG current change (%, negative = inhibition) at 10uM
Cc1ccc(S(=O)(=O)N2CCC(C(=O)OC3CCOC3=O)CC2)cc1C (stereo not drawn)	-12.1%
CCc1ccc(Nc2cc(C)nc3ncnn23)cc1	-23.9%
Cc1cccc(-n2nc3c(c2NC(=O)c2ccco2)CSC3)c1C	0.725%
CN(C(=O)c1ccccc1C(=O)OCC(=O)NCc1cccs1)C1CCCCC1	14.1%
CCOc1ccc(/C(CCC(=O)O)=N/NC(=S)NCCc2ccccc2)cc1	-2.93%
Cc1ccc(C(=O)OCC(=O)c2c[nH]c3ccccc23)cc1	7.5%
O=S(=O)(Cc1cc(Sc2ccccc2)nc(-c2ccccc2)n1)c1ccccc1	-0.23%
CCOC(=O)N1CCN(C(c2ccc(C)cc2)c2sc3nc(C)nn3c2O)CC1 (stereo not drawn)	-17%
O=C(C1=C[C@H](c2ccccc2)C[C@H](OCc2ccc(CO)cc2)O1)N1CCN(Cc2ccccc2)CC1	-41.2%
O=c1c(/C=N/O)c(Nc2ccccc2)nc2ccccn12	-13.5%
CN(CC(=O)Nc1cc(Cl)cc(Cl)c1)Cc1cccs1	9.73%
CCCCc1nc(N)c(C#N)c(-c2ccco2)c1CCC	-0.797%
Cc1ccc(/C=N/NC(=O)c2cc(C)oc2C)o1	17.8%
CCN(CC)C(=O)CSc1nnc(-c2ccc(S(=O)(=O)N3CCCC3)cc2)o1	-17.4%
COc1ccc(-c2cc(C(=O)N3CCCC3)c3ccccc3n2)cc1	-2.31%
Cc1ccc(S(=O)(=O)N2CCC(C(=O)OC(C)C(=O)NC3CCCCC3C)CC2)cc1 (stereo not drawn)	-18%
C/C(=N\O)c1ccc(N2C(=O)C3CC=C(Cl)CC3C2=O)cc1 (stereo not drawn)	-9.63%
O=C(c1c[nH]c2ccccc12)C(O)C(c1ccccc1)N1CCOCC1 (stereo not drawn)	-0.703%
CC(NC(=O)C1CCN(C(=O)c2ccc(F)cc2)CC1)c1ccc(-n2ccnc2)cc1 (stereo not drawn)	-64.7%
Cl.NCCCC[C@H](N)c1nnc([C@H](CC(=O)O)NC(=O)C2CCNCC2)o1	-7.24%
COc1ccccc1NS(=O)(=O)c1ccc2ccccc2c1	0.727%
CCCSc1nnc(Cn2c(=O)sc3ccccc32)n1-c1ccccc1	-13.6%
COCCNS(=O)(=O)c1cc(OC)c(C)cc1C	1.55%

Compound	hERG current change (%, negative = inhibition) at 10uM
CC1(C)CC(=O)C=C(c2cccc(O)c2)C1=O	-1.58%
COC(=O)C(C(=O)N1CCN(C)CC1)C1CCCCCC1 (stereo not drawn)	13.2%
N#CC(C(=O)NCc1ccco1)c1nc2ccccc2nc1N1CCOCC1 (stereo not drawn)	-14.3%
COC(=O)c1ccc(OCCOCCOc2cccc3ccc(C)nc23)cc1	-3.06%
COc1cccc(-c2nc(CS(=O)(=O)CC(=O)Nc3ccccc3Cl)c(C)o2)c1	7.71%
CN(Cc1ccccc1)C(=C(Cl)Cl)/C(=C1/NCCN1Cc1ccc(Cl)nc1)[N+](=O)[O-]	-42.7%
O=C(CNc1cccc2ccccc12)N/N=C/c1ccc([N+](=O)[O-])cc1	11%
O=c1[nH]c2ccc(S(=O)(=O)N3CCCCC3)cc2s1	-4.64%
NC(=O)COc1ccccc1	10.7%
COC(=O)c1ccc(-c2ccc(F)cc2)nc1C	2.9%
CC(C)(C)N(Cc1ccccc1)C(=O)CCc1ccccc1	11.8%
CC(C)[C@H]1CC[C@@H](C)C(C(=O)c2ccccc2)C1=O (stereo partly drawn)	-12%
Cc1cccc(C(C)C)c1NC(=O)C1CCN(S(=O)(=O)c2ccccc2)CC1	5.19%
N#Cc1ccc(OCC(=O)N2CCN(S(=O)(=O)c3cccs3)CC2)cc1	-72.1%
Cc1cc(C(=O)NCC(=O)OC(C(=O)Nc2cc(C(F)(F)F)ccc2Cl)c2ccccc2)ccc1[N+](=O)[O-] (stereo not drawn)	-6.65%
CC(C)c1cc(C(=O)OCC(=O)N2CCN(C(=O)c3ccco3)CC2)c(O)c(C(C)C)c1	0.678%
CC(Cc1ccccc1)NC(=O)/C=C/C(=O)O (stereo not drawn)	1.42%
COCCN(C(=O)COC(=O)C1=COCCO1)c1c(N)n(Cc2ccccc2)c(=O)[nH]c1=O	31.1%
Nc1nnc(SC2CCCC2)s1	-0.499%
Cn1c(=O)c2c(n(C)c1=O)=NC1(CCCCC1)ON=2	-15.4%
Cc1ccc(S(=O)(=O)NC2CCSC2=O)cc1C (stereo not drawn)	2.32%
Cc1ccc(S(=O)(=O)Nc2cc(=O)[nH]c(SCC(=O)Nc3ccccc3C(F)(F)F)n2)cc1	10.7%
